About 180 (0.051%) of roughly 350,000 compounds were called active. Inconclusive results, whose numbers are uncertain, are shown with a selection of clear calls.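 How the source made its calls: active means mean replicate inhibition above about 25%, with every replicate also reaching it (limit read from the data, passing the limit was not always enough); inconclusive means only one of those two criteria met; inactive means neither criterion met.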
Biological target: Protein disulfide-isomerase A6 (Homo sapiens) (UniProt Q15084)
Assay: inhibitors of ERp5-driven insulin aggregation, primary screen, biochemical, turbidity, absorbance 650 nm, single point (AID 651711)
Settings: 90 min, at 9.99 µM, active compounds read high

Sequence of UniProt Q15084 (Q15084 whole entry, looked up): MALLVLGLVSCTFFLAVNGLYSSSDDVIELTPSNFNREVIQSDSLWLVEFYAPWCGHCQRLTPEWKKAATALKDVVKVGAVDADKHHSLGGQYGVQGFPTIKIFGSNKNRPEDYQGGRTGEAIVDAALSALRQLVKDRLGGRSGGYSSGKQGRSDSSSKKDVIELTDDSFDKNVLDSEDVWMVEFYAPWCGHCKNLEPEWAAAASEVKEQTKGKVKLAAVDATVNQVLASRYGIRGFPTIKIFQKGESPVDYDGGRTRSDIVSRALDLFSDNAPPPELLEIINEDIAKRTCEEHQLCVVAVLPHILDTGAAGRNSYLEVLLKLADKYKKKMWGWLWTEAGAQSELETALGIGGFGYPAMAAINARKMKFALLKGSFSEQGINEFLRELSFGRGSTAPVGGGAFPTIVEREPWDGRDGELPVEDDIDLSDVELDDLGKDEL

Compound	inhibition
C[C@H]1CN([C@@H](C)CO)C(=O)Cc2cc(NC(=O)Nc3ccc(F)cc3)ccc2O[C@H]1CN(C)S(=O)(=O)c1cccs1	inactive: 6.42%
Cc1cccc(NC(=O)Nc2ccccn2)c1C	inconclusive: 37.3%
c1ncc(-c2ccc(C3[C@@H]4CN(Cc5cocn5)C[C@H]3N4)cc2)cn1 (stereo partly drawn)	inconclusive: 33.3%
O=C(C[C@@H]1C[C@H]2c3cc(NC(=O)CC4CC4)ccc3O[C@H]2[C@@H](CO)O1)NCc1ccc(-c2ccccc2)cc1	active: 59.4%
O=C(c1ccccc1)N1CN2CN(C(=O)c3ccccc3)CC([N+](=O)[O-])(C2)C1	inconclusive: 32.6%
Cc1noc(C)c1NC(=O)Nc1ccc2c(c1)C(=O)N([C@H](C)CO)C[C@@H](C)[C@@H](CN(C)C(=O)Nc1ccc(F)cc1)O2	active: 50.7%
O=c1/c(=C\c2ccc(O)cc2)sc2nc(-c3ccccc3)c(-c3ccccc3)n12	inconclusive: 33.8%
COc1ccc(Cn2cc3c(-c4ccc(F)cc4)nnc-3c3cc(OC)c(OC)cc32)cc1	inconclusive: 48.4%
CC(OC(=O)c1oc2ccccc2c1COc1ccccc1)C(=O)NC(N)=O (stereo not drawn)	inconclusive: 39.9%
CNC[C@H]1Oc2c(N)cccc2C(=O)N([C@H](C)CO)C[C@@H]1C	inactive: -1.22%
C/C=C/c1cnc2c(c1)C(=O)N([C@H](C)CO)C[C@H](C)[C@@H](CN(C)C(=O)NCCC)O2	inconclusive: 35.6%
CC(C)CC#Cc1ccc2c(c1)O[C@H](CN(C)C(=O)C1CCCCC1)[C@H](C)CN([C@@H](C)CO)S2(=O)=O	inactive: -7.89%
Cc1c(Cl)cccc1NC(=O)N1CCCN(c2nc(-c3ccccc3)ns2)CC1	inactive: 5.25%
CCOCCCn1c(SCC(=O)NC2CCCCC2)nc2ccccc2c1=O	inactive: -6.48%
O=S(=O)(CCN1CCSCC1)c1ccc(Cl)cc1	inconclusive: 55.6%
Cc1cc(C(=O)Nc2c(C)nn(Cc3ccccc3)c2C)on1	inconclusive: 49.6%
CCCNC(=O)C[C@H]1CC[C@@H]2[C@@H](COc3ccc(NC(=O)c4ccccc4)cc3C(=O)N2C)O1	active: 63.7%
Cc1ccc2nc(Cn3cc(C(F)(F)F)cc(Cl)c3=O)cc(=O)n2c1	inconclusive: 29.7%
O=S(=O)(c1ccc(Cl)nc1)N1CCc2ccccc21	inconclusive: 37.9%
Cc1ccc(/C=C/C(=O)c2ccc(N3CCOCC3)cc2)s1	inconclusive: 36.9%
CC(C)N(Cc1nccn1C)C(=O)c1ccc(OC2CCN(C(=O)C3CC3)CC2)cc1	inconclusive: 38.7%
Cc1cccc(C)c1NC(=O)C(C)Sc1nnc(C)n1CC1CCCO1 (stereo not drawn)	inconclusive: 35.5%
COc1ccc(CN(C)C[C@@H]2OCCCC[C@H](C)Oc3ccc(NC(=O)NC(C)C)cc3C(=O)N([C@H](C)CO)C[C@H]2C)cc1	inactive: -1.71%
Cc1ccc(C)c2[nH]c(=O)c(CN(CC3CCCO3)C(=S)NCc3ccco3)cc12 (stereo not drawn)	inconclusive: 43.8%

Compound	inhibition
O=C(c1cn(-c2ccccc2)nc1-c1ccc(F)cc1)N1CCCCC1	inconclusive: 36.6%
O=C(N/C(=C\c1cccs1)C(=O)N1CCOCC1)c1cccs1	inactive: 8.27%
O=C(COc1ccc(S(=O)(=O)Nc2ccccc2)cc1)NCc1ccncc1	inconclusive: 42.3%
COc1ccc(S(=O)(=O)N(C)C[C@@H]2OCCCC[C@H](C)Oc3ccc(NC(=O)Nc4cccc5ccccc45)cc3C(=O)N([C@H](C)CO)C[C@H]2C)cc1	inactive: 0.32%
OC[C@@H]1CN(Cc2ccc(-c3ccccc3)cc2)C[C@H](n2cnc3c(NCc4ccco4)ncnc32)O1	inactive: -0.736%
O=C(C[C@H]1C[C@@H]2c3cc(NC(=O)NC4CCCC4)ccc3O[C@@H]2[C@@H](CO)O1)NCc1ccc(Cl)cc1	active: 98.2%
COc1ccc(NC(=O)C2CCN(S(=O)(=O)c3cccc4nonc34)CC2)cc1	inconclusive: 45%
CC(C)(C)c1ccc(NC(=O)C(=O)C2C(=O)Nc3ccccc32)cc1 (stereo not drawn)	inconclusive: 26.4%
COc1ccc(S(=O)(=O)Nc2ccc3c(c2)C(=O)N([C@H](C)CO)C[C@H](C)[C@H](CN(C)C(=O)Nc2ccccc2)O3)cc1	active: 28.9%
CO[C@@H]1CN(C)C(=O)c2ccc(NS(C)(=O)=O)cc2OC[C@@H](C)N(C(=O)C2CC2)C[C@H]1C	inactive: -1.67%
CNC(=O)COC(=O)c1ccc(OCC(=O)Nc2ccccc2OC)c(OC)c1	inconclusive: 39.2%
CN1CCN(C(=O)C[C@@H]2C[C@@H]3c4cc(NC(=O)C5CCOCC5)ccc4O[C@@H]3[C@H](CO)O2)CC1	active: 36.9%
COc1ccc(C(=O)Nc2cc(OC)c(Cl)cc2OC)cc1	inconclusive: 36.4%
O=C(O)c1ccc(-n2cncn2)c([N+](=O)[O-])c1	inconclusive: 33.9%
Cc1csc(NC(=O)c2cc[n+]([O-])cc2)n1	inconclusive: 34.3%
Cc1ccc2c(c1)cc(CN(C(=O)N1CCOCC1)C1CCCC1)c1nnnn12	inactive: -3.65%
Cc1noc(C)c1NC(=O)Nc1cccc2c1O[C@@H](CN(C)S(=O)(=O)c1ccc(Cl)cc1)[C@@H](C)CN([C@H](C)CO)C2=O	inactive: 15.3%
CCOc1ccc(NN=C(C(=O)OC)C(=O)OC)c([N+](=O)[O-])c1	inactive: 8.63%
Cc1ccc(-c2nc3ncccc3o2)cc1NC(=O)COc1ccccc1	inconclusive: 44.8%
COc1ccc(NC(=O)N2CCN(c3ccc([N+](=O)[O-])cc3)CC2)cc1OC	inactive: 0.562%
CCCNC(=O)CN(c1ccc(F)cc1)S(=O)(=O)c1ccc2c(c1)OCCO2	inconclusive: 42.8%
CCOC(=O)CCCNC(=O)COC(=O)c1cc(Br)c(Br)s1	inconclusive: 31.8%
CNC[C@H]1Oc2ccc(NC(=O)C3CC3)cc2CC(=O)N([C@@H](C)CO)C[C@H]1C	inconclusive: 48.3%
O=C(Cc1cccs1)N=Nc1c(O)[nH]c2ccc(Br)cc12	inactive: 4.16%

Reference: PubChem BioAssay AID651711 (Broad Institute, 2012)
